The RNAGym collection of RNA variant scans (doi:10.7554/elife.90254)
Read counts are not given, so values of variants with three or more changes are uncertain.

B1: LINE1-full (parent)
chain: UACGUAGGUGGUUUUCCCCUGAUAGUGCUAAGGGGGCCUGGAAGUUUGGACUGGGCAGAGCUCAACACAGCGUGGCAAAGUGGCUGUGGCUAGACUGCCUCUCUGGAUUCCUCGUCACUCAGCAGGGCAUCUCUGAGAGAAAUGCC

Variants of: B1
Experiment: self-cleavage, relative activity (ratio to wild type); higher = more cleavage; in vitro, sequencing; the parent is a self-cleaving ribozyme

| Variant | self-cleavage |
| --- | --- |
| U12C U13C A121G U132C | 0.57 |
| U12C U20A U29A A50G U62A G97A A136G | 0 |
| G11A U13C A77G G93U U96A | 0.12 |
| U9G U100C U130C U143C | 1.6 |
| U9G C101U A124U A142G | 0.94 |
| U12C G36A U47G U81A A94G A107G | 0.8 |
| U9G G25A A43G U108C | 0.9 |
| U12C U39A A129C | 1.23 |
| U12A U39A U130A | 0.84 |
| U12C A42G A67U U87C C123A A136C | 0.22 |
| U12C A22U U39C U119C A141G | 0 |
| U12C U13C U39A A50G A129G | 1.15 |
| U12C A121U A136G | 2.2 |
| G10A A24U U39C | 0.88 |
| U9G A42G A117U | 1.05 |
| U9G U46C U85C A121G | 0 |
| U9G A42U A50G A65U A140G | 0.28 |
| U12C A69U A79U A129C U130C | 0.25 |
| G10U A22G G53U U102C U130C | 1.97 |
| U12C A64U U91C A107G | 0.29 |
| U12C A69G U104C | 0 |
| U9G U12C A140G | 1.03 |
| U12C U14C A57G U62C | 0 |
| U9G U39C G74A U108C | 0.3 |

| Variant | self-cleavage |
| --- | --- |
| U12C A43G U85C C128U | 0.36 |
| U12C C16U G135A | 0.64 |
| U12C G41A A79U | 1.77 |
| G10A A67G A78G | 0.21 |
| U12C C16U A67U A94U | 0.22 |
| U12A G34U U85C U104A A121U | 0.13 |
| G10A G21A A59U G88A U109G A121G | 0 |
| U12A A57G U132C | 0.57 |
| U9C U91C A117G | 1.53 |
| U9G A50G G54A A136U G144U | 0.17 |
| U12C G106A A142G | 1.75 |
| U12C U29C G48A A59G A136G U143A | 0.12 |
| U12C U13C A42G U73A A79U | 2.56 |
| U12A C66A A140C | 0.12 |
| U12C C61A U87A U91C A136U | 0.07 |
| U12A U15C A77G | 1.72 |
| U12C A24U G33U C56U U62C | 0.09 |
| U12C A78G U85C A129U | 0.35 |
| U12C G125A A136U | 1.19 |
| U9G U20C U102A A107U A142G | 0.88 |
| U12C A79G U87C C103A U104A | 0.44 |
| U12C G70U U73C | 0.1 |
| U12C A64G A107G | 0.32 |
| U12C A57G U102C | 0 |

| Variant | self-cleavage |
| --- | --- |
| U12C A79G U119C | 0.38 |
| U12C U15C U47A | 1.59 |
| U12C A79G U87A | 0.13 |
| U12C A69G G88A U100G | 0 |
| U12C A77G U85C | 0.81 |
| U12C C19U A69U G82A U85C A136U | 0.08 |
| U12A A65G A79G A136G | 0.12 |
| U12C A22G U47A A140U A142G | 1.01 |
| U12A A67G A138G | 0.33 |
| U9C U87C C128U | 0.24 |
| U12A G54A G114C | 0.41 |
| G11A A22G U23C C110A | 0.47 |
| U12C G49A A141G | 1.01 |
| U12C A59G A79G | 0 |
| U12A C38A A43G | 0.83 |
| G11U A50G A64U A77G U102C | 0.93 |
| U12C U26A A59G | 0.33 |
| U12C U15A U143C | 1.44 |
| U12C U15C C28U A59G A124G A141U | 0.07 |
| U12C A69C U73A | 0.03 |
| U9C U100A U119C | 0.82 |
| U12C U14C U26A A43C | 0.81 |
| U9C U87A U102A | 0.15 |
| U12C U14C G32U | 1.16 |

| Variant | self-cleavage |
| --- | --- |
| U12C A59G U87A | 0.15 |
| U12C G27A A59G C103U A138U A141G | 0.12 |
| G11A G32U G48A | 1.41 |
| G10U A64G U119C | 0.17 |
| U12C A50G G72A | 1.25 |
| U12C C37G U143C | 1.25 |
| G10A A138G A142G | 1.93 |
| U9G U62C C99U | 0.1 |
| U12A U47C U130C | 2.45 |
| U12C A24G U26G U45A C76U U91C | 0.54 |
| U12C C95U A140G | 0.17 |
| U12C A42U U52C U109A | 0.79 |
| U12C U14C U132C | 1.29 |
| U12C G36C A64G U96A U112A | 0.06 |
| U12C U23C A59U | 1.29 |
| U9C U87C A94G | 0 |
| U12C A30G U73C | 2.16 |
| U12C G74U A78G | 0.44 |
| U12C U23C A24G A129G | 0.71 |
| U12A A69G U85C | 1.84 |
| U12C A77U A79G | 1.3 |
| G11A A43U U108C U109C A142G | 0.82 |
| U12C U15C U20A U134C | 0.79 |
| U12C C17U A129G | 0.75 |

| Variant | self-cleavage |
| --- | --- |
| U12C A24G G75A U81G | 0.78 |
| U12C G34A A42C A43G U46C U52A | 0.4 |
| U12A U26C U45G | 2.51 |
| G10A A69G U91C A92U A129U U130C | 0 |
| U12C G34A U108A | 0.79 |
| G10A A50U U96A | 0.05 |
| U12C A138G A140G | 1.94 |
| U9G C19U A65U G93C | 0.3 |
| G10A U26C A121G | 1.11 |
| U9G A22G G48U | 0.41 |
| U12C A77U A107G A124G A141G | 1.25 |
| U12C U26C A57U | 0.32 |
| G10C A57G U100A A136C | 0.49 |
| U9C U108C U130C | 2.3 |
| U12C A43G G105U A121G U143C | 2.81 |
| U12C A57G U87C A124U | 0 |
| U12C A30G U115C A142G | 0.88 |
| U9G A79G U81G A121U A138U | 0.54 |
| U12A A57G G82A | 0.95 |
| U9G U12C A142G | 1.23 |
| U12C A64G U108C G125C | 0.75 |
| U9G U119A A136G | 0.71 |
| U12C U26A A43G A94G A124U A142G | 0 |
| U12C A69U U108C U119C | 0.28 |

| Variant | self-cleavage |
| --- | --- |
| G10A U15C G40U | 0.54 |
| U12A A92G U96G A138G | 1.15 |
| U9G U12A U13C G60A C131A | 0 |
| U12C U13C U20C U143A | 1.08 |
| U12C A117U A124U | 1.44 |
| U12C U15C U85C | 0 |
| U12A U13C A78U | 1.32 |
| G11A A124G U134C | 1.94 |
| U12C U15A A64G | 0.44 |
| U12A U52C U143A | 1.26 |
| U12C U20A U62A A64U A141G | 0.09 |
| U12C A57G U104A | 0.74 |
| U12C A57G U104C | 0 |
| U9G U29A A42G U112A U130C U143C | 2.04 |
| G10U U20C G32A G122U A136U A142G | 1.14 |
| G10A U73C C110A | 1.87 |
| U12C G32C A64G | 1.17 |
| U12C C63A U96A | 0.04 |
| U12A U13C C123A | 1.41 |
| U12C G53A U109C A124G | 1.19 |
| U12C A43G A140G | 0.69 |
| G10U A22G A107G | 1.46 |
| U12C A67G U108C | 0 |
| U12C A42U U96G A129U A142G | 0 |

| Variant | self-cleavage |
| --- | --- |
| G10C G34A A69G G127A | 0.44 |
| U12C A117G A136G | 1.08 |
| U12C G126U U130C A141G | 1.69 |
| U12C A50G A59G A141G | 1.31 |
| G10A U102A A141G | 1.1 |
| U12A A64U U87C A94G U119C | 0 |
| U12C U14A A138G | 1.67 |
| U12C G32U U104C A124G | 0.92 |
| U12A A24G U85A | 0.2 |
| U12A A77G G137U | 1.93 |
| U12C G88A C116U | 0.06 |
| G10A U39C A64G | 0.27 |
| U12C G25A U26A A42G U45C | 1.27 |
| U12A U26A A50G A79G A124U | 0.32 |
| G10U U13C A30G A57G A77U | 1.06 |
| U12C A117G G126C | 0 |
| G11A A69U A138U | 0.09 |
| U12C C61G U81G | 0 |
| U12C G32A G34A U62A U87C | 0.18 |
| U12C A22G A78G U100G | 0 |
| U12C U13G G86A U134C | 0.36 |
| U12A U15A U23C U26A A69G | 0.44 |
| G10U U23C U45C U73C | 0 |
